ChEMBL document CHEMBL5308541, “MAIP: An Open-Source Tool to Enrich High-Throughput Screening Output and Identify Novel, Druglike Molecules with Antimalarial Activity” (ACS Med Chem Lett, 2023)
About 540 (0.36%) of roughly 150,000 compounds showed an effect of 50% or more. The list shows a part of the results.

tested on: Plasmodium falciparum; test: Primary screen in NF54 nanoGlo assay, in single point, at 2uM, 72h; a lower Z score goes with more inhibition; type: functional, Erythrocyte; details: timepoint 72 hour

Row | Compound | % Inhibition [%] | Z score
1 | Cc1cnn(CC2CCN(C(=O)[C@H]3CCCN(CC(N)=O)C3)CC2)c1 | -10 | 1.73
2 | CC(C)N1CCN(CCCN2CCN(C)C3(CCCCC3)C2)CC1 | 3 | -0.69
3 | c1ccc(Cn2ccnc2[C@H]2CCCN(c3ncnc4[nH]ccc34)C2)nc1 | 4 | -0.79
4 | CCc1ccc(Br)cc1C(=O)N[C@@H](CO)C(N)=O | 1 | -0.29
5 | Cc1nc2ccc(C(=O)N(C)Cc3cc(C4CC4)on3)cc2o1 | -9 | 1.56
6 | Cc1nn(CC(F)(F)F)cc1C(=O)N(C)[C@@H](C)CO | -6 | 0.97
7 | O=C(NC1CCN(Cc2ccc(Cl)cc2)CC1)[C@@H]1CCCN1C1CCCC1 | -2 | 0.43
8 | Cc1ccnc([C@H]2CCN(CC(=O)N(CCC#N)CCC#N)C2)c1 | -2 | 0.32
9 | COc1cccc(Nc2ccccc2C(=O)N(C)[C@H]2CCNC2)c1 | -10 | 1.92
10 | CN([C@@H](c1ccccc1)c1ccccc1Br)S(=O)(=O)c1c[nH]c2ncccc12 | 60 | -11.93
11 | N#Cc1ccc(N2CCC[C@H](N3CCN(c4ccc(F)cc4)CC3)C2)nc1 | 7 | -1.61
12 | CN1C(C)(C)CC(NC(=O)c2cc(-c3cccc(C(F)(F)F)c3)on2)CC1(C)C | 11 | -2.02
13 | c1cc(N2CCCN(c3ccnc(-c4nccs4)n3)CC2)ccn1 | -4 | 0.78
14 | CN(Cc1nc(-c2ccncc2)no1)c1nccc(N2CCC(O)CC2)n1 | 0 | 0.03
15 | CCc1ccc(-c2ccc(Nc3ccc(C(N)=O)cc3)nn2)cc1S(N)(=O)=O | -9 | 1.53
16 | O=C(CCN1CCCCCCC1)NCc1noc(-c2c(F)cccc2F)n1 | 5 | -1.14
17 | COc1ccc(CNCc2cc3ccccc3[nH]2)cc1CN(C)C | 41 | -7.29
18 | OCC1CCCN1c1cc(N2CCOC(c3cc(F)c(Cl)cc3Cl)C2)ncn1 (stereo unspecified) | 14 | -2.91
19 | C[C@@H](CNc1ncnc2[nH]ccc12)CN1CCCCC1 | -15 | 2.21
20 | COc1ccc(N2CCN(CCCN[C@@H](C)CS(=O)(=O)c3ccccc3)CC2)cc1 | -4 | 0.91
21 | COc1ccnc(NC[C@@H]2C[C@H](F)CN2Cc2cncnc2)n1 | -7 | 1.48

Row | Compound | % Inhibition [%] | Z score
22 | COCCN1CCC(CN(C)c2ncnc3cc[nH]c23)CC1 | 14 | -2.08
23 | c1ccc(-c2nnc(NCc3ccnc(OC4CCC4)c3)s2)nc1 | -6 | 1.28
24 | Cc1cc(C(=O)NC2CCN(c3ncnc4[nH]ccc34)CC2O)no1 (stereo unspecified) | 1 | -0.23
25 | Cc1nn(C)cc1CN(C)c1cncc(C(=O)N2CCCC2)n1 | -7 | 1.17
26 | c1ccc2ncc(CN3CCC(N4CCCCC4)CC3)cc2c1 | 5 | -0.87
27 | CCc1ccc(NC(=O)N2CCC[C@H](c3cccc(C(=O)NCCN4CCN(C)CC4)c3)C2)cc1 | -7 | 1.23
28 | O=C([C@@H]1CC2(CCNCC2)CN1)N1CCC(n2c(=O)[nH]c3ccccc32)CC1 | -9 | 1.56
29 | Fc1cccc2c(NCc3ccccc3OCCN3CCOCC3)ncnc12 | 10 | -1.83
30 | Cn1cc(CNC(=O)CN2CCNCC2=O)c(C(F)(F)F)n1 | -8 | 1.24
31 | Clc1cnc2nc(N[C@H]3CCCN(CCN4CCOCC4)C3)ccc2c1 | 2 | -0.42
32 | c1nc2n(c1CN1CCC3CCCCC31)CCOC2 (stereo unspecified) | 6 | -0.85
33 | COc1ccc2[nH]cc(-c3ccc(N)nc3)c2c1 | 20 | -4.06
34 | O=C1CCC2(C(=O)NCCc3c[nH]c4ccc(F)cc34)N1c1ccccc1C(=O)N2C1CC1 (stereo unspecified) | -3 | 0.68
35 | CCn1ccnc1CN1CC2CN(c3nnc(C)c4ccccc34)CC2(CO)C1 (stereo unspecified) | 5 | -0.89
36 | CN(C[C@H]1Cc2ccccc2CN1C)c1cncc(C(=O)N2CCCC2)n1 | -9 | 1.56
37 | NC1CCCCCC1NCCCC1CCCN1 (stereo unspecified) | 4 | -0.84
38 | O=C(O)CN1CCC(NS(=O)(=O)c2cnc3ccccc3c2)CC1 | -10 | 2.08
39 | O=C(Cc1c[nH]c2ncccc12)NCC1CN(C(=O)c2ccccc2)C2CCN1C2 (stereo unspecified) | -4 | 0.72
40 | CNc1nc(C)cc(N2CCC(N(C)CCn3ccc4ccccc43)CC2)n1 | 15 | -2.6
41 | c1cc(-c2cnc3nn[nH]c3c2)c2cc[nH]c2c1 | 0 | -0.09
42 | C[C@@H](CC(F)(F)F)NCc1nc2cc(F)ccc2[nH]1 | 2 | -0.5

Row | Compound | % Inhibition [%] | Z score
43 | Cc1cc2cccc(C(=O)N(CCN(C)C)Cc3nc[nH]c3C)c2o1 | -3 | 0.57
44 | CCCNc1ncc(CN2CCC[C@H](c3nc4c(C)cccc4[nH]3)C2)cn1 | -4 | 0.78
45 | c1nc(NCC2CC2)cc(N2CCCN(C3CCOCC3)CC2)n1 | 0 | -0.11
46 | CS(=O)(=O)c1cc(CNC2CC3CCC(C2)N3)cc(C(F)(F)F)c1 (stereo unspecified) | -9 | 1.59
47 | COCCN1CCN(C[C@@H](O)CN2CCC(C)CC2)CC1 | 5 | -0.92
48 | CCN(C(=O)NC1CCN(C2CCN(C)CC2)CC1)[C@@H](C)c1cccnc1 | 1 | -0.15
49 | COc1ccc2c(c1F)CC[C@@H]2NC1CCN(Cc2ccc(F)c(F)c2)CC1 | 10 | -1.53
50 | CCN1CCN(CC2CN(Cc3ccc(-c4nn[nH]n4)cc3)CC2CO)CC1 (stereo unspecified) | 1 | -0.15
51 | CNC(=O)CN1CCC(Nc2ncnc3ccc(C(C)C)cc23)CC1 | 2 | -0.48
52 | COc1ccc(C[C@H](C)CNC2CCN(c3cc(C)nc(C)n3)CC2)cc1F | 10 | -1.78
53 | C[C@H](NCc1cc(-c2cnn(C)c2)no1)c1cccc(-n2ccnc2)c1 | 0 | -0.05
54 | Cc1ncnc(N2CCN(C3CCN(c4ccc5c(c4)OCO5)CC3)CC2)c1C | -13 | 2.29
55 | Cc1cccc(C)c1Nc1ccnc(Nc2c(C)cccc2C)n1 | -8 | 1.27
56 | Cc1cc(NC[C@H]2CN(CC(C)C)CCO2)c2ccccc2n1 | 33 | -7.06
57 | c1cnc(NCCCCN2CCOCC2)cn1 | 2 | -0.24
58 | Cc1c([C@H]2CNC[C@@H]2C(=O)N2CCN(CC3CC3)CC2)cnn1C | -7 | 1.04
59 | FC(F)(F)c1nccc(NCCCN2CCOCC2)n1 | 4 | -0.75
60 | Cc1ccc(CN(C)CC(=O)NC(C2CCNCC2)[C@H]2C[C@H](O)C2)cc1 (stereo partly specified) | 6 | -1.04
61 | Cc1ccc(-c2cc(Nc3cc(C)ccc3O)nc(C)n2)cc1 | 6 | -1.08
62 | COc1ccc(CNc2nc(NCc3ccc(OC)nc3)nc(N3CCOCC3)n2)cn1 | -2 | 0.46
63 | Cc1sc(=O)n(CCC(=O)Nc2nn(C(C)C)cc2C#N)c1C | -7 | 1.17

Row | Compound | % Inhibition [%] | Z score
64 | COc1cccc(CN2CCC[C@@]3(CCN(c4ncnc5[nH]ccc45)C3)C2)c1 | -9 | 1.67
65 | CN(C)CCN1CCC(NC2CCC(O)(c3cccc(Cl)c3)CC2)CC1 (stereo unspecified) | 33 | -5.06
66 | COC(=O)Nc1cccc(N[C@@H]2COC(C)(C)C2)c1 | -7 | 1.05
67 | CCOC(=O)c1cnc(NC2CCN(C3CCOCC3)CC2)nc1C | -3 | 0.58
68 | COc1ccc(CNc2cccc(C(=O)NCCO)c2C)cc1Cl | -8 | 1.5
69 | c1cc(-c2ccnc(NCc3ccc4nonc4c3)n2)ccn1 | -1 | 0.19
70 | COc1cccc2ccc(CNCCCCN3CCCCCC3)nc12 | -4 | 0.7
71 | COc1ccc(CCNc2cc(C)nc3c(-c4ccc(Cl)cc4)c(C(F)(F)F)nn23)cc1OC | -5 | 0.79
72 | CC(C)C[C@H]1C(=O)NCCN1S(=O)(=O)Cc1cccc2cccnc12 | -6 | 1.08
73 | Cc1nc(Nc2ccc3[nH]ncc3c2)c2cc[nH]c2n1 | 9 | -1.86
74 | Cc1cccc2cc(C(=O)Nc3cccc(NC(=O)CN(C)C)c3)n(C)c12 | 6 | -1.22
75 | CC1CCC(N(C)C(=O)CN2CCN(C3CCN(C(C)C)CC3)CC2)CC1 (stereo unspecified) | -1 | 0.15
76 | c1ccc(-c2ccc(N3CCC(N4CC[C@H](n5ccnc5)C4)CC3)cc2)cc1 | -4 | 0.66
77 | Cc1nc(-c2ccc(O[C@H]3CCN(C(=O)c4[nH]nc5c4COc4ccccc4-5)C3)cc2)no1 | -9 | 1.74
78 | Cc1cc(-n2cncn2)ccc1C(=O)NC1CCN(C2CCN(C)CC2)CC1 | -7 | 1.28
79 | COc1cccc(Oc2ccc(NC(=O)[C@@H]3NCCc4[nH]cnc43)cn2)c1 | -6 | 1.22
80 | CC(=O)NCCNc1ncc(-c2ccoc2)c(-c2ccc(C)cc2)n1 | -8 | 1.38
81 | CN(Cc1ccc(OC[C@@H](O)CN2CCCCC2)cc1)Cc1nc2ccccc2o1 | -8 | 1.35
82 | CN(C[C@@H]1C[C@H](F)CN1Cc1cnn(C)c1)C(=O)c1ccsn1 | -7 | 1.1
83 | CN(C[C@@H]1CCCN(C)[C@H]1c1cncn1C)c1ncnc2[nH]ccc12 | -10 | 1.47
